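Tested at 5 concentrations; 48 h exposure; 96-well plates; endpoints linearly interpolated, else capped at highest concentration. At the GI50, growth is halved.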 Activity calls are given as the source filed them. No stated cut-off is given here; in the data, active = GI50 up to about 1.1 µM and inactive = higher.
System: NCI-H322M
Assay: NCI tumour cell line growth inhibition, 48 h

Structure (SMILES)	GI50
CCCC(=O)OC1C(C(O)CO)OC2OC(C)(C)OC21 (stereo not drawn)	inactive: > 100 µM
Cc1ncc(COP(=O)(O)O)c(C)c1O	inactive: > 100 µM
CN1CC(=O)N2Cc3ccccc3-n3cccc3C2C1 (stereo not drawn)	inactive: > 100 µM
CCN1CSC(=S)N(CC)C1	inactive: > 100 µM
COC1CCC(OC2CC(C3(C)CCC4(CC(O)C(C)C(C(C)/C=C(\C)C(=O)C(C)CC(C)C(=O)O)O4)O3)OC3(OC(C4OC(O)(CO)C(C)CC4C)CC3C)C2C)OC1C (stereo not drawn)	active: 0.291 µM
OCCCNCc1ccccn1	inactive: > 100 µM
Nn1c(CCCCCCCCc2nnc(COc3c(O)ccc4ccccc34)n2N)nnc1COc1c(O)ccc2ccccc12	inactive: > 100 µM
C[C@]12CC(c3ccccc3O1)C(C(N)=O)C(=O)N2 (stereo partly drawn)	inactive: > 100 µM
COc1cc2c(cc1-c1coc3cc(OCC=C(C)C)ccc3c1=O)OCO2	inactive: 31.4 µM
CC1OC(OC2C(OC(=O)[C@]34CCC(C)(C)C[C@H]3C3=CC[C@@H]5[C@@]6(C)CC[C@H](OC7OC(C(=O)O)C(O)C(O)C7O)C(C)(C)[C@@H]6CC[C@@]5(C)[C@]3(C)C[C@H]4O)OCC(O)C2O)C(O)C(OC2OCC(O)(CO)C2O)C1OC1OCC(O)C(O)C1O (stereo partly drawn)	inactive: 3.37 µM
COc1cc(OCc2ccc3nc(-c4ccccc4)c(N)nc3c2)cc(OC)c1OC	inactive: 11 µM
CCN(CC)C(=S)N/N=C(\C)c1cccc(C)n1	active: < 0.0391 µM
CCC1OC(=O)CC(O)C(C)C(OC2OC(C)CC(N(C)C)C2O)C(CC=O)CC(C)C(=O)/C=C/C2(C)OC2C1C (stereo not drawn)	inactive: 36.7 µM
O=S(=O)(CCBr)CCBr	inactive: 16.8 µM
O[C@@]12Cc3c([nH]c4ccccc34)[C@@H]3Oc4c(-c5ccccc5)ccc5c4[C@@]31CCN(CC1CC1)[C@@H]2C5	inactive: 1.95 µM
Cc1cnoc1/N=C1\C=C(Nc2oncc2C)C(=O)c2ccccc21	inactive: > 100 µM
COc1ccccc1CC(=O)C(O)(C(F)(F)F)C(F)(F)F	inactive: > 100 µM
Nc1nn2c(=O)c3ccccc3nc2s1	inactive: > 100 µM
O=c1oc2c3ccc4ccccc4c3n(CCCN3CCCCC3)c2c2ccccc12	inactive: > 100 µM
CCOC(=O)C1C(NC(N)=O)N(Cc2ccccc2)C(=O)N1Cc1ccccc1 (stereo not drawn)	inactive: > 100 µM
COc1cc2c(cc1OC)C(=O)N(c1ccc(OCCN3CCCC3)cc1)C2=O	inactive: > 100 µM
COCn1c(C)c(C)c2c(=O)oc(C)nc21	inactive: > 100 µM
COC(=O)C1C(OCc2ccccc2)C2CCC1(OC)C=C2C (stereo not drawn)	inactive: > 100 µM
Cc1ccc(C)c(NC(=O)CC2C(=O)Nc3ccccc3S2(=O)=O)c1 (stereo not drawn)	inactive: > 100 µM

Structure (SMILES)	GI50
CCOC(=O)CCC(NC(=O)c1ccc(Nc2cnc3ccc(C(F)(F)F)cc3n2)cc1)C(=O)OCC (stereo not drawn)	inactive: 27.7 µM
CN(C)c1ccc2nc3c(C(=O)O)cc(O)c(O)c3[o+]c2c1	inactive: 30 µM
[N-]=[N+]=NC[C@H]1OCO[C@H](CN=[N+]=[N-])[C@@H](OCCOCCCl)[C@@H]1OCCOCCCl	inactive: > 100 µM
CC1(C)COC(c2ccccc2-c2ccccc2)=N1	inactive: > 100 µM
COc1ccccc1-n1c(N)c2c(C)c(-c3ccccc3)[nH]c2nc1=S	inactive: > 100 µM
CCOC(=O)C(NC(=O)CC)(C(F)(F)F)P(=O)(OCC)OCC (stereo not drawn)	inactive: > 100 µM
CNC(=O)N(CCCC(NC(C)=O)C(=O)NCc1ccccc1)Cc1ccccc1 (stereo not drawn)	inactive: > 100 µM
Cc1ccc(/N=N/c2c(C)nn(C(=O)CC(=O)Nc3ccccc3)c2C)cc1C	inactive: > 100 µM
CC[C@@H](CCCC[C@@H]1CC[C@H]2CC(=O)C[C@@H]12)OC	inactive: > 100 µM
CC(=O)Nc1ccc(S(=O)(=O)/N=c2/sc(S(N)(=O)=O)nn2C)cc1	inactive: > 100 µM
CSC(=S)N/N=C/c1nccc2ccccc12	active: 0.682 µM
N#CC(C#N)=CNC(=S)c1ccncc1	inactive: > 100 µM
O=C(c1ccccc1)c1ccc2c(c1)N=C(c1ccc(Cl)c(Cl)c1)CC(c1ccc3ccccc3c1)N2 (stereo not drawn)	inactive: > 100 µM
NC(=S)N/N=C1/C(=O)N(c2ccc(Cl)cc2Cl)C(=O)C(=O)C1c1nc2ccccc2s1 (stereo not drawn)	inactive: > 100 µM
C/C(=N\NC(=S)Nc1ccc(C)cc1)c1nc2cccnc2[nH]1	inactive: 3.66 µM
CC(C)N(C(=O)C12C3C4C5C3C1(C(=O)O)C5C42)C(C)C (stereo not drawn)	inactive: > 100 µM
O=C(C[C@H](NC(=O)OCc1ccccc1)C(=O)NC1Cc2ccccc2OC1=O)OCc1ccccc1 (stereo partly drawn)	inactive: > 100 µM
O=C1COc2ccc([N+](=O)[O-])cc2C(=O)C1	inactive: > 10 µM
CCOP(=O)(/C=C/n1ccc(N)nc1=O)OCC	inactive: > 100 µM
Cc1cc(=O)n2nc(CN3CCCCC3)sc2n1	inactive: > 100 µM
Cc1cc(N(CCC#N)CCC#N)ccc1CC1N=C(c2ccccc2)OC1=O (stereo not drawn)	inactive: > 100 µM
O=C(CNc1ccccc1Cl)Nn1c(-c2ccccc2)nc2ccccc2c1=O	inactive: 34.2 µM
O=C1N(c2ccccc2)C(=S)/C(=C/c2ccc(Cl)cc2)N1c1ccc(Cl)cc1	inactive: > 100 µM
CC1(C)Oc2ccc(Cl)cc2C12CC2	inactive: 22.2 µM

Structure (SMILES)	GI50
CCOC(=O)/C=C/CCC(C)(C)COC(C)=O	inactive: > 10 µM
CC(C)(CC(O)C#N)/[N+]([O-])=[N+](\[O-])C(C)(C)CC(O)C#N (stereo not drawn)	inactive: > 100 µM
CC1=C(\C=C/C(C)=C/C=C/C(C)=C/C=C/C=C(C)\C=C\C=C(C)/C=C/C2=C(C)CCCC2(C)C)C(C)(C)CCC1	inactive: > 100 µM
CCc1cccc(C(C)CC)c1NC(=O)CC1C(=O)Nc2ccccc2S1(=O)=O (stereo not drawn)	inactive: 21.3 µM
COc1cc(C(=C2SCCS2)c2nccc3cc(OC)c(OC)cc23)c([N+](=O)[O-])cc1OC	inactive: > 100 µM
CC(C)NC(=O)OCc1nnn2c1C(OC(=O)NC(C)C)CC2 (stereo not drawn)	inactive: > 100 µM
O=C(/C(=N\Nc1ccc([N+](=O)[O-])cc1[N+](=O)[O-])NC12CC3CC(CC(C3)C1)C2)C(Br)C(=O)c1ccccc1 (stereo not drawn)	inactive: 5.04 µM
CCN(/C=C1/C(=O)C(c2ccccc2)N(c2ccccc2)C1=O)CC (stereo not drawn)	inactive: > 10 µM
Cc1cccc(/C=N/NC(=S)NC(C)(C)C)n1	inactive: > 100 µM
C=C(C[N+](C)(C)C)N/N=C/c1oc(-c2ccc(OC)c(OC)c2)c(-c2ccc(OC)c(OC)c2)c1[N+](=O)[O-]	inactive: 21.8 µM
CC(=O)c1cc2ccccc2[n+]([O-])c1N	inactive: > 100 µM
CN(C)C(=S)/N=c1\ssc(=S)n1Cc1ccncc1	inactive: 43.6 µM
CCCC(=O)N(C)/N=N/c1ccc(C(=O)OCC)cc1	inactive: > 100 µM
O=C1OCc2c1cc1cc3c(cc1c2-c1ccc2c(c1)OCO2)OCO3.O=C1OCc2cc3cc4c(cc3c(-c3ccc5c(c3)OCO5)c21)OCO4	inactive: 36.1 µM
C=C1C(=O)OC2CCN3CC=C(COC(=O)C(C)(O)C4(CO4)C1C)C23 (stereo not drawn)	inactive: > 100 µM
COC(=O)C12C3C4C1C1C2C3C41C(=O)N(C(C)C)C(C)C (stereo not drawn)	inactive: > 100 µM
CCN1C=C/C(=C\C=C\c2cc[n+](CC)c3ccccc23)c2ccccc21	inactive: 6.03 µM
Cc1nc2ccc(/N=N/N(C)C)cc2[nH]1	inactive: > 100 µM
COc1cc(O)c2c(c1C)C(C)(O)c1c(C)coc1C2=O (stereo not drawn)	inactive: > 100 µM
C[N+](C)(C)CC1CCCC1=O (stereo not drawn)	inactive: 17.1 µM
CC(C)(C)OC(=O)N(O)CCCn1cnc2c(NC3CC3)ncnc21	inactive: > 100 µM
COC(=O)CC(NC(=O)OCc1ccccc1)C(C(=O)OCc1ccccc1)C1(C)OCCO1 (stereo not drawn)	inactive: 90.2 µM
COC1OC(CBr)C(OC(=O)c2ccccc2)C(OS(=O)(=O)c2ccc(C)cc2)C1Br (stereo not drawn)	inactive: > 100 µM
CN1CC=C(c2c(N)nc(N)[nH]c2=O)CC1	inactive: > 100 µM

Structure (SMILES)	GI50
COc1ccc(N2C(=O)C3c4[nH]c5ccc(C)cc5c4C4CCC(C(C)C)CC4C3C2=O)cc1 (stereo not drawn)	inactive: > 100 µM
O=P(Nc1cccc(Cl)c1)(Oc1ccccc1)N(CCCl)CCCl (stereo not drawn)	inactive: 15.2 µM
COc1cccc2c1C(=O)C=CC2=O	inactive: 15.7 µM
CCOC(=O)C1C(c2ccc3c(c2)OCO3)c2c(n[nH]c2O)CC1(O)OCC (stereo not drawn)	inactive: > 100 µM
NCC(=O)OCN1C(=O)C2C3C=CC(C2C1=O)C1C2C(=O)N(COC(=O)CN)C(=O)C2C31 (stereo not drawn)	inactive: 73.3 µM
NC(=S)NNC(=S)NC(=O)c1ccco1	inactive: > 10 µM
CC1(O)CC(C(F)(F)F)(C(F)(F)F)OC1=O (stereo not drawn)	inactive: > 10 µM
CCN(CC)C(=S)N/N=C/c1cc(OC)ccc1O	inactive: 5.41 µM
Cc1[nH]c2[nH]c(=S)nc(NC(N)=S)c2c1Cc1ccccc1	inactive: 68.1 µM
CC(C)(C)OC(=O)NC(CS(=O)(=O)O)C(=O)O (stereo not drawn)	inactive: > 100 µM
O=C(O)c1cc(/N=N/c2ccc([N+](=O)[O-])cc2)ccc1O	inactive: 26.1 µM
CC1=CC(=O)CC2(C)CC[C@@H]3C[C@]12OC3(C)C (stereo partly drawn)	inactive: > 100 µM
COc1cc(C2c3cc4c(cc3[C@H](NC(=O)c3cccs3)C3COC(=O)[C@H]23)OCO4)cc(OC)c1OC (stereo partly drawn)	active: < 0.01 µM
COC(=O)C1=C(O)c2cc(OC)c(OC)c(OC)c2C(c2ccc3c(c2)OCO3)[C@@H]1C(=O)OC (stereo partly drawn)	inactive: 6.89 µM
CCN(CC)CCCNc1ccc2nc(C)n3c4ccc(O)cc4c(=O)c1c23	inactive: 2.4 µM
c1ccc([S+](c2ccccc2)c2ccc(Sc3ccc([S+](c4ccccc4)c4ccccc4)cc3)cc2)cc1	inactive: 35.9 µM
O=C(N/N=C/c1cccc(F)c1)c1ccncc1	inactive: > 100 µM
CC1(C)[C@@H](Cn2cnc3c(Cl)nc(N)nc32)CC[C@@]1(C)CO	inactive: 44.4 µM
COC(=O)c1ccc(/C=N/c2ccc(S(N)(=O)=O)cc2)cc1	inactive: > 100 µM
C#CCN(Cc1ccc2[nH]c(N)nc(=O)c2c1)c1ccc(C(=O)NC(CCC(=O)O)C(=O)O)cc1 (stereo not drawn)	inactive: > 100 µM
COc1ccc(-c2cc(=O)c3c(OC)cccc3o2)c(OC)c1OC	inactive: > 100 µM
